Measured values from the supplement of paper PMC10338343.
± gives the standard deviation. The list shows a part of the results, in another mix than the full data.

These sequences were tested on MIWI (PIWIL1) piRISC loaded with piRNA #1 (30 nt) (assay: pre-steady-state target cleavage rate (min^-1); MIWI and MILI are mouse PIWI proteins and EfPiwi is from a freshwater sponge; tags in brackets are library labels; higher = faster piRNA-guided slicing of the target). Conditions: guide: piRNA #1 5'p-UGAGGUAGUAGGUUGUAUAGUAUCCAGAGG; auxiliary factor: 500 nM mouse GTSF1.
Method in brief: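 Cleave-'n-Seq: 1 nM active affinity-purified piRISC with one synthetic guide and 0.1 nM transcribed, DNA-blocked target RNA library were mixed, with or without 500 nM GTSF1 partner protein, in HEPES–potassium acetate buffer at 33 °C for 0–8 or 0–960 min. Uncleaved targets were sequenced and normalised to depth and to weakly complementary targets, three trials were pooled, and k3 was capped at 0.0001 min^-1. The pre-steady-state cleavage rate was fitted […].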

Sequence	pre-steady-state target cleavage rate
GGACUGGAUACUAUACAACCUACUGACCUCA	0.486 ± 0.053
GGACUGGAUUCUAUACAACGUACUACCUCA	0.966 ± 0.072
GGAGACCUAACUAUACUACCUACUACCUCA	0.227 ± 0.035
GGAGUGGAUACUAUACUACCUUCUACCUCA	0.226 ± 0.021
GGUCUGGAUACUAUACAACCUAACUACCUCA	0.0183 ± 0.0029
GGAGAGUGAUACUAUACAACCUACUACCUCA	2.1 ± 0.15
CCUCUGGAUACUAUACAACCUGCUACCUCA	0.768 ± 0.04
GGAGACCAUACUAUACAACCUAUUACCUCA	1.49 ± 0.097
GGACUGGAUACUAUAGAACCUACUACCUGA	0.0735 ± 0.019
GGAGACGAUACUAUACAACCUAUCUACCUCA	0.362 ± 0.03
GGAGACCUUACUAUACUACCUAGUACCUCA	0.108 ± 0.014
CCUCUGGAUACAAUAGAACCUACUACCUCA	0.99 ± 0.065
GGAGAGGAUACUAUAGAACCAACUACCUCA	0.0447 ± 0.006
CCUCUCGUUACUAUACAACCUACUACCUCA	1.76 ± 0.1
GGAGACCUAUGAUAUGAUCCUACUACGUCA	< 0.0001
GGAGACCUAUGAUAUGUUGGAACUACCACA	< 0.0001
